According to PubChem BioAssay AID686970 (National Center for Advancing Translational Sciences (NCATS), 2013):
The whole screen tested about 360,000 compounds, of which about 6,000 (1.7%) were called active. Inconclusive means that the source gave no clear call. Such entries were picked first, then a sample of the others. Calls come from the whole dose curve; as a rule, active = well fitted cell-killing curve with a large enough effect; inconclusive = small, poorly fitted or top-dose-only effect, or effect the other way; inactive = flat fitted curve, though single readings scatter. Potencies of inconclusive entries are left out as doubtful fits.

Experiment: qHTS for induction of synthetic lethality in tumor cells producing 2HG: qHTS for the HT-1080-NT fibrosarcoma cell line;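 note: NT is the 2HG producing partner of a matched IDH1 knockdown line; nearly all actives have a fitted effect of over 55% in size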;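 for activity, negative = less viability: 0% = DMSO-treated cells and -100% = media-only wells without cells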
Details: HT-1080-NT fibrosarcoma viability, CellTiter-Glo ATP luminescence, 48 h; activity, negative = less viability: at 46.1 µM (top of the series) unless noted
Summary of the method: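 Fibrosarcoma NT cells, 750 per well in 5% FBS RPMI, were exposed to compound for 48 hours. Viability: CellTiter-Glo luminescence.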
Potency is the fitted concentration of half-maximal effect; tags give direction and shape of the fitted curve.

Compound | Potency | activity, negative = less viability
COc1cc2c(cc1OC)C(C)N(C(=O)c1ccc(C)o1)CC2 (stereo not drawn) | inconclusive [cytotoxic, partial curve] | –
CN(C)CCCN(C(=O)c1ccc(S(=O)(=O)N2CCc3ccccc3C2)cc1)c1nc2ccc(F)cc2s1 | inconclusive [cytotoxic, single point] | –
Cc1cc(C(=O)C(C)OC(=O)c2ccc(NC(=O)CC#N)cc2)c(C)n1-c1ccccc1 (stereo not drawn) | inconclusive [cytotoxic, single point] | –
O=C(Nc1ccc(N2CCN(C(=O)c3ccccc3F)CC2)cc1)c1cncc(Br)c1 | inactive | –
Cc1cc(C)c(S(=O)(=O)N(C)CC(=O)N2CCCC2)c(C)c1 | inactive | –
COc1cccc(OC)c1C1=CC(=O)C[C@H](c2ccc3c(c2)OCO3)C1 | inconclusive [cytotoxic, single point] | –
O=C(Nc1cccc2ccccc12)c1ccc([N+](=O)[O-])s1 | inconclusive [cytotoxic, single point] | –
Fc1cccc(Cc2c(-c3cccc(Cl)c3)nc3c4ccccc4ccn23)c1 | inconclusive [cytotoxic, single point] | –
CCOC(=O)C(Oc1ccc(=O)n(-c2ccccc2)n1)C(C)=O (stereo not drawn) | inactive | –
COc1ccc(-c2nc(CN3CCCCC3c3nccn3C)c(C)o2)c(C)c1C (stereo not drawn) | inconclusive [cytotoxic, partial curve] | –
COc1ccc(NC(=S)NCCc2ccc(F)cc2)c(OC)c1 | inconclusive [cytotoxic, single point] | –
CCOC(=O)NNS(=O)(=O)c1cc(Br)ccc1Br | inconclusive [rising, single point] | –
Cc1ccc(-c2cc(NC=O)c3ncc(-c4cnn(C)c4)n3c2)cc1 | inconclusive [cytotoxic, partial curve] | –
Cc1cc(OCC(=O)NCCc2c[nH]c3ccccc23)c2c(C)cc(=O)oc2c1 | inactive | –
COc1ccc(C(=O)C2CCCN(Cc3cccc4c3OCO4)C2)cc1OC (stereo not drawn) | – | inconclusive: -30.5% [cytotoxic]
CN(C)CCCN(C(=O)c1ccc(S(=O)(=O)N(C)C2CCCCC2)cc1)c1nc2ccc(Br)cc2s1 | inconclusive [cytotoxic, single point] | –
CC(C)CNC(=S)NC1CC2CCCC(C1)N2Cc1cccs1 (stereo not drawn) | inconclusive [cytotoxic, single point] | –
COc1cccc(NC(=O)C2(C)CCN2C(=O)CC2CCCC2)c1 (stereo not drawn) | inactive | –
COC(=O)c1ccc(NC(=O)Nc2cccc(F)c2)cc1 | inconclusive [cytotoxic, partial curve] | –
CCOC(=O)N1CCC(NC(=O)c2cn(-c3ccc(OC)cc3)c(=O)c3ccccc23)CC1 | inactive | –
O=c1oc2ccccc2c(O)c1C=NCc1ccccn1 | inconclusive [cytotoxic, partial curve] | –
Cc1cc(C)c(C(=O)/C=C/c2cccc3ccccc23)c(=O)[nH]1 | inconclusive [cytotoxic, single point] | –

Compound | Potency | activity, negative = less viability
COc1ccc(NC(=O)C2(C)CCN2Cc2ccc(SC)cc2)cc1OC (stereo not drawn) | inactive | –
O=C(NCc1ccco1)C1CC(c2ccc(Cl)c(Cl)c2)=NO1 (stereo not drawn) | inconclusive [cytotoxic, single point] | –
CCOC(=O)c1c(CN2CCN(c3ccccc3)CC2)oc2cc(Br)c(O)cc12 | inconclusive [cytotoxic, single point] | –
C(=C\c1ccccc1)/CN1CCN(C(c2ccnc3ccccc23)c2nnnn2C2CCCCC2)CC1 (stereo not drawn) | inconclusive [cytotoxic, single point] | –
COCCN=c1scc(-c2cc(OC)c(OC)c(OC)c2)n1/N=C/c1c(C)[nH]c2ccccc12 | inconclusive [cytotoxic, partial curve] | –
CC1(c2ccccc2)NC(=O)N(CC(=O)Nc2cccc(/C=C/c3ccccn3)c2)C1=O (stereo not drawn) | inconclusive [cytotoxic, single point] | –
COc1ccc(-c2sc3cc(OC)c(OC)cc3c2C#CC2(O)CCCCC2)cc1 | inconclusive [cytotoxic, single point] | –
CCOC(=O)C1CCCN(c2cc(C)nc3cc(-c4ccc(Cl)cc4)nn23)C1 (stereo not drawn) | inconclusive [cytotoxic, single point] | –
COc1ccc(C(C[N+](=O)[O-])c2c(C)cc3ccccn23)c(OC)c1 (stereo not drawn) | inconclusive [cytotoxic, single point] | –
Cc1nnc(NC(=O)CCC(=O)N2CCC(C)CC2)s1 | inconclusive [cytotoxic, single point] | –
CCOc1ccccc1-c1nc(-c2ccc(NC(=O)c3ccc(Br)o3)cc2)no1 | inconclusive [cytotoxic, partial curve, poor fit] | –
CCc1nc(N)nc(N)c1-c1ccc(Cl)c([N+](=O)[O-])c1 | inconclusive [cytotoxic, full curve] | –
COc1ccc(N2CCN(C(=S)Nc3cc(C)ccc3C)CC2)cc1 | – | inconclusive: -2.09% [cytotoxic]
NS(=O)(=O)c1ccc(CCNC(=O)c2cc(-c3ccc(Br)cc3)nc3ccccc23)cc1 | inconclusive [cytotoxic, single point] | –
CC1(C)CC(N=c2cc(-c3ccccc3)oc3ccc(Cl)cc23)CC(C)(C)N1 | active: 7.31 µM | –
COc1cc(C(=O)Oc2c(CN3CCOCC3)cc(Cl)c3cccnc23)cc(OC)c1OC | – | inconclusive: -26% [cytotoxic]
COc1ccc(CNc2ccc3c(c2)ncn3C)cc1OC | active: 16.4 µM | –
CCN(CC)CCN1CCN(c2cncc(-c3ccc4ccccc4c3)n2)CC1 | active: 23.1 µM | –
COc1ccc2c(c1)C(CC(=O)NN)CCC2 (stereo not drawn) | active: 7.31 µM | –
Cc1cc(C)cc(NC(=O)N2CCC(C(=O)c3ccc(F)cc3)CC2)c1 | inactive | –
CCOc1ccc2noc3c2c1C(=O)c1ccccc1-3 | inconclusive [rising, full curve] | –
